# PMC4336329 (PLoS ONE, 2015)
# In all, about 310,000 compounds went through this assay and about 14,000 (4.5%) showed an effect of 50% or more. The effect is printed as a negative number. The list shows a part of the results.
# Biological target: human ether-à-go-go-related gene (hERG) potassium channel (human, UniProt Q12809)
# Experiment: primary screen, population patch clamp on CHO cells stably expressing hERG
# 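Also: peak tail current of the secondary pulse compared with the same well before compound.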
# Chain of human ether-à-go-go-related gene (hERG) potassium channel (Q12809 whole entry, looked up): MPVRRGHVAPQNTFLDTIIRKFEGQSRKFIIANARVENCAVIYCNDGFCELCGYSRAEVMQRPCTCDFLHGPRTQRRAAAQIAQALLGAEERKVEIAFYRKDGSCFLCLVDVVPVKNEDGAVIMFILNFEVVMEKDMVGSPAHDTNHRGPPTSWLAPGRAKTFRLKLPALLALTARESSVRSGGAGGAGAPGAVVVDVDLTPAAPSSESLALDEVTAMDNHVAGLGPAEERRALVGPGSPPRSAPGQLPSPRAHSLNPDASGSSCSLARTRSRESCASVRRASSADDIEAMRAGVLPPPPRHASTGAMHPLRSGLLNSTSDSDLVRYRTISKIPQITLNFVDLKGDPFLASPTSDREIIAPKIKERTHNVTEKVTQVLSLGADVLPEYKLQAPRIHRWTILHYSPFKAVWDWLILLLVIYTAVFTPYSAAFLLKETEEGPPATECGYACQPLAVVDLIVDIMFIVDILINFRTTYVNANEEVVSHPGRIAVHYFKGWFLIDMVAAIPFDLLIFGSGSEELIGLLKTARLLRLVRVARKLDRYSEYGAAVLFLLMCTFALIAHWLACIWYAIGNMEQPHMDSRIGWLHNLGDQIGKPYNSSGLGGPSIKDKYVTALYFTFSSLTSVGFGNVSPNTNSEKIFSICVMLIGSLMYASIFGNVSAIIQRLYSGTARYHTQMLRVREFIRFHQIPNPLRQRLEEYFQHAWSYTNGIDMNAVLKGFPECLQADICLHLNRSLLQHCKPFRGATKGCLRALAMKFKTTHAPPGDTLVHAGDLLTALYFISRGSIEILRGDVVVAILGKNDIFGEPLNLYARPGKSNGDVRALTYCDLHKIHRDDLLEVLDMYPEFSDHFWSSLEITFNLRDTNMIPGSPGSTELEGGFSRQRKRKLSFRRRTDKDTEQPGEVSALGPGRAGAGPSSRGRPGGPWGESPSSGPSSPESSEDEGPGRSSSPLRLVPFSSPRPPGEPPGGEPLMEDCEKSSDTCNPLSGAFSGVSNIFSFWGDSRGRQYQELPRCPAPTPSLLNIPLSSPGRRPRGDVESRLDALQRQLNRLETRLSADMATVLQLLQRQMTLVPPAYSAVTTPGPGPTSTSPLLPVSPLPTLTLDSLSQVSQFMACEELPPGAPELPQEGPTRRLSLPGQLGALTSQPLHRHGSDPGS
row,SMILES,"hERG current change (%, negative = inhibition) at 10uM [%]"
1,CCOC(=O)c1c(C)oc2cc(Sc3ccccc3)c(O)c(O)c12,5.79
2,CC(C)OCC(O)CN1CCNCC1.Cl (centres unmarked),11.6
3,COc1cc(NC(=O)CCS(=O)(=O)c2ccc3c(c2)n(C)c(=O)c(=O)n3C)cc(OC)c1,11.2
4,COc1cccc(C2/C(=C(/O)c3ccc(F)cc3)C(=O)C(=O)N2CCN(C)C)c1 (centres unmarked),18.1
5,CCCCN(CC)CCNc1c(NC2CCN(C(=O)OCC)CC2)c(=O)c1=O,5.12
6,CC(C)C(NC(=O)c1ccc(C(C)(C)C)cc1)C(=O)NCc1ccccn1 (centres unmarked),0.55
7,Cc1cc(C)c(C(=O)/C=C/C=C/c2ccccc2)c(=O)[nH]1,8.65
8,CN(CCOc1ccccc1)CC(=O)Nc1ccc(S(=O)(=O)N2CCCC2)cc1,1.66
9,CC(O)CNc1nc2c(c(=O)n(Cc3ccc(Br)cc3)c(=O)n2C)n1C (centres unmarked),-12.6
10,N#C/C(=C(/O)CO/N=C/c1ccccc1Cl)c1nc2ccccc2[nH]1,19.8
11,COc1ccc(CN2CCN(C(=O)C3CCC(CNS(=O)(=O)c4ccc(C)cc4)CC3)CC2)c(OC)c1OC (centres unmarked),-27.5
12,O=C(NCc1nc2ccccc2[nH]1)C1=C[C@@H](c2ccccc2)C[C@@H](OCCCCO)O1,-46.5
13,CCCOc1ccc(/C(O)=C2/C(=O)C(=O)N(CCN(C)C)C2c2ccc(OC)c(OC)c2)cc1 (centres unmarked),14
14,CCOc1ccc(S(=O)(=O)NCc2ccc3c(c2)OCO3)cc1C,13
15,Cc1ccc(NC(N)=S)cc1C,3.57
16,Cn1c(=NC(=O)C2=NNC(=O)CC2)sc2ccccc21,15.2
17,CN=c1sc2ccccc2n1CC(O)COCc1ccco1 (centres unmarked),-65.4
18,COc1cccc(C(=O)NC2CCNCC2)c1,3.79
19,CC1(CC(=O)NNC(=O)Nc2ccccc2)OCCCO1,-33.6
20,CCc1ccccc1N1CC(C(=O)Nc2nccs2)CC1=O (centres unmarked),1.46
21,CCOc1cc(NC(=S)Nc2cccc(OC)c2)c(OCC)cc1NC(=O)C1CC1,-1.5
22,O=C(COC(=O)C1CC2C=CC1C2)Nc1ccc2c(c1)OC(F)(F)O2 (centres unmarked),-19.3

row,SMILES,"hERG current change (%, negative = inhibition) at 10uM [%]"
1,CCC(CC)C(=O)NCCc1cc2c(OC)ccc(OC)c2[nH]c1=O,-16.7
2,O=C(NCC1OCCc2ccccc21)c1ccc(NC(=O)c2ccc(Cl)cc2)cc1 (centres unmarked),-16.8
3,COc1cccc(NC(=O)Cn2nnc(C(=O)NCc3cccs3)c2N)c1,18.4
4,Cc1ccc(C2=NNC3(CCOC(C)(C)C3)S2)cc1 (centres unmarked),22
5,CCOC(=O)C1CCCN(C(=O)c2ccccc2SCCOC)C1 (centres unmarked),6.2
6,COC(=O)c1ccccc1NC=C1C(=O)OC2(CCCCC2)OC1=O,-1.07
7,S=C(c1cn(Cc2ccccc2)c2ccccc12)N1CCOCC1,1.49
8,COc1ccc(C2C(C#N)=C(N)OC3=C2C(=O)CCC3)cc1Cn1nc(C)c([N+](=O)[O-])c1C (centres unmarked),-13.3
9,CCn1c(SCC(=O)Nc2cccc(C)n2)nc2c1c(=O)n(C)c(=O)n2C,-23.7
10,COCCN(C(=O)CCC(=O)Nc1ccccn1)C(C(=O)NC(C)C)c1ccc(Cl)cc1 (centres unmarked),-5.58
11,CNC(=O)c1c(NC(=O)c2cccc(C)c2)sc2c1CCC2,15.4
12,CN(C)/C=C(\C=O)c1c(Cl)cccc1Cl,23.5
13,Cn1c(NNC(=O)C2CCCCC2)cc(=O)n(C)c1=O,13.4
14,CCOc1cc(/C=N/NC(=O)CNc2cccc(C)c2)ccc1OC(=O)c1ccccc1,17.3
15,Cc1ccc(SCC(=O)OC(C)C(=O)Nc2ccc(S(N)(=O)=O)cc2)cc1C (centres unmarked),22.9
16,CCCNC(=O)COC(=O)c1cc(C)nc2ccccc12,14.7
17,COc1ccc(NC(=S)NCc2ccccn2)cc1OC,11.9
18,O=C1N[C@@H](Cc2ccccc2)C(=O)N1CCN1CCOCC1,16.8
19,O=C(c1cccs1)N1CCc2ccccc21,-5.59
20,COc1ccccc1N(CC(=O)NCCN1CCOCC1)S(=O)(=O)c1ccccc1,9.76
21,Cc1ccc(-c2nnc(CSc3nc(C(C)C)nc4sc(C)c(C)c34)o2)cc1,-0.248
22,Cc1cc(Cl)c(S(=O)(=O)N2CCN(c3ccccc3)CC2)cc1OCC(N)=O,2.35
